In all, about 50,000 compounds went through this assay and about 800 (1.6%) showed an effect of 50% or more. This is one part of the list.

For 106 compounds, displacement results are on record in PubChem BioAssay AID1240 (Sanford-Burnham Center for Chemical Genomics, 2008).

The assay deals with Bcl-2-like protein 10 (Homo sapiens) (UniProt Q9HD36). In words: TR3 peptide-Bcl-B binding displacers, biochemical primary FP assay, phenotype converters (AID 1240).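 Note: 0% = Bcl-B with tracer peptide and DMSO and 100% = tracer peptide lacking Bcl-B.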 Particulars: GST-Bcl-B / FITC-TR3 peptide fluorescence polarization; stronger effect = higher value; compound at 3.75 mg/L. Background: In fluorescence polarisation assays a small probe gives low polarisation when free and higher when bound to something large.
UniProt Q9HD36, sequence (Q9HD36 whole entry, looked up): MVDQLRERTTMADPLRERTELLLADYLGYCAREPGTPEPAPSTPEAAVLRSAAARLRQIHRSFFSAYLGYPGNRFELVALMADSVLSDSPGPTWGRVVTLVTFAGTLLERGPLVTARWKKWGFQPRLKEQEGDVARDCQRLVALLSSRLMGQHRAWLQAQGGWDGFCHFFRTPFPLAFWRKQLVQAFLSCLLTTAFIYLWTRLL
In the case of `COc1ccc(C(NC(=O)c2ccco2)c2ccc(OC)c(OC)c2)cc1` (stereo unspecified), the displacement was -2.3%.
Take `CCOc1ccc2sc(C=NCCc3ccccc3)c(O)c2c1`: the displacement was found to be 13.2%.
On to `COc1nc(Nc2ccc(Cl)c(Cl)c2)nc(N(C)C)n1`, for which the displacement is -7.7%.
Turning to `CCOc1ccccc1OCC(=O)NN`, the displacement came out at 9.5%.
Regarding `O=[N+]([O-])c1ccc(Cl)c(-c2nnc(-c3ccc(Br)o3)o2)c1`, the displacement is 0%.
Take `O=C(O)c1cc(NS(=O)(=O)c2ccc3c(c2)OCCO3)cc(C(=O)O)c1`: the displacement was -3.6%.
Consider `O=C(Nc1ccc(-c2nc3ccccc3[nH]2)cc1)c1cc2ccccc2o1`, for which the displacement is -14.2%.
On to `COc1ccc(OC)c(-n2c(O)c(C=Nc3cccc(C)c3)c(=O)[nH]c2=O)c1`, for which the displacement is -2.6%.
To `N/C(=N\OC(=O)C(c1ccccc1)c1ccccc1)c1ccncc1` belongs 3.5%.
With `Cc1ccc(NC(=O)c2ccc(OCC(C)C)cc2)c(C)c1`, the displacement was 5%.
As to `COc1ccc(-n2c(O)c(C=Nc3cccc(Cl)c3)c(=O)[nH]c2=O)cc1`, the displacement worked out at 14.2%.
Turning to `CCOc1ccc(NC2=C(Cl)C(=O)N(c3ccc(Br)cc3)C2=O)cc1`, the displacement was -4.8%.
For `C=CCCCC(=O)Nc1ccc(-c2ccc(NC(=O)CCCC=C)cc2)cc1`, the displacement turned out to be 12.1%.
As for `CC(C)Oc1ccccc1NC(=O)CSc1nc2ccccc2n1C`, the displacement worked out at 8.4%.
Regarding `COc1ccc(C(=O)NCC2(c3ccc(OC)c(OC)c3)CCCC2)cc1`, the displacement is -17.4%.
Turning to `CCOC(=O)CCc1c(C)nc2cc(-c3cccc(F)c3)[nH]n2c1=O`, the displacement was found to be 8.7%.
For the compound `COc1cc(/C=N/Nc2ncc(C)c(=O)[nH]2)cc(OC)c1O`, the displacement is 6.6%.
Take `O=C(NCc1ccncc1)c1ccc(Cl)cc1`: the displacement is -3.5%.
Consider `COc1cc(/C=c2\sc3nc4ccccc4n3c2=O)ccc1OC(=O)c1ccc(F)cc1`, for which the displacement stood at 13.5%.
For the compound `CC(C)CNC(=O)CN(c1ccc(F)cc1)S(=O)(=O)c1ccccc1`, the displacement was 0%.
Consider `O=C(Nc1ccc(I)cc1Cl)c1ccc(Cl)c(Cl)c1`, for which the displacement is -6.3%.
In the case of `O=C(NCCN1CCNCC1)C(=O)Nc1ccc(F)cc1`, the displacement stood at 12.1%.
For `O=c1oc2c(F)c(F)c(F)c(F)c2c2[nH]ncc12`, the displacement worked out at 3.4%.
To `O=C(/C=C/c1ccc(Cl)cc1)Nc1cccnc1` belongs 7.2%.
Consider `CC1CCN(c2ccc(/C=N/N=C3\NC(=O)CS3)cc2[N+](=O)[O-])CC1`, for which the displacement worked out at 7%.
Take `CN1/C(=C\C=N\Nc2ccc([N+](=O)[O-])cc2)C(C)(C)c2ccccc21`: the displacement was -4.6%.
For the compound `Cc1cccc(C(=O)Nc2sc3c(c2C(=O)N2CCN(C)CC2)CCCC3)c1`, the displacement was 13.3%.
Turning to `CC(C)c1ccc(CNC(=O)CSc2nc3ccccc3o2)cc1`, the displacement amounted to 1.8%.
In the case of `Cc1ccc(CNS(=O)(=O)c2ccccc2[N+](=O)[O-])cc1` it was 5.2%.
In the case of `COc1ccc(NC(=O)c2ccc(CN3CCc4ccccc4C3)cc2)c(OC)c1`, the displacement is 10.5%.
Consider `CCOC(=O)Cn1nc(-c2ccccc2)c2ccccc2c1=O`, for which the displacement amounted to 0.3%.
To `O=C1C2C3C=CC(C3)C2C(=O)N1c1ccc(-c2ccnc(-c3ccc(N4C(=O)C5C6C=CC(C6)C5C4=O)cc3)n2)cc1` (stereo unspecified) belongs 4.4%; to `COc1cc(Cl)cc(/C=N/NC(=O)/C(=C\c2ccc3c(c2)OCO3)NC(=O)c2ccccc2)c1O`, 6.1%; to `Nc1ccc2nc(SCC(=O)Nc3ccc4nc(SCC(=O)NC5CC5)sc4c3)sc2c1`, -1%.
With `C#CCOc1ccc(/C=C2\C(=O)NC(=O)N(c3cc(C)cc(C)c3)C2=O)cc1OC`, the displacement is -12.3%.
As for `CCn1c2ccccc2c2cc(NC(=O)Cc3ccc(OC)c(OC)c3)ccc21`, the displacement is -5.2%.
Regarding `CCCc1nc2ccccc2n1C(=O)/C=C\C(=O)O`, the displacement was -0.6%.
As for `COc1ccc(NC(=O)c2cc3cc(OC)ccc3oc2=O)cc1`, the displacement came out at 7.5%.
In the case of `CCOc1ccc(NC(=S)NC(NC(=O)CC(C)C)C(Cl)(Cl)Cl)cc1` (stereo unspecified) it was 7.1%; in that of `CC1(C(=O)n2nnc3ccccc32)CC2C=CC1C2` (stereo unspecified), 5.2%.
To `O=[N+]([O-])c1cc(-n2ncnc2-c2ccc(Cl)cc2)ccc1F` belongs -7.7%; to `O=C1NC(=Nc2ccc(Br)cc2)S/C1=C\c1ccc([N+](=O)[O-])cc1`, 0.3%.
For `COc1cccc(NC(=O)COc2ccc(Br)cc2C(C)(C)C)c1`, the displacement was found to be 3.9%.
In the case of `CCOc1cc(/C=C2\C(=O)NC(=S)N(c3cccc(Br)c3)C2=O)ccc1O` it was 3.4%.
To `CCCOc1ccc(N2C(=O)CC(N3CCC(C(N)=O)CC3)C2=O)cc1` (stereo unspecified) belongs 4.8%; to `C/C(=N/NC(=O)c1cc(-c2ccc3ccccc3c2)n[nH]1)c1ccc([N+](=O)[O-])cc1`, -3.1%; to `CCOC(=O)c1c(Nc2ccc(C)cc2)csc1C`, -1.3%.
In the case of `Nc1nnc(SCC(=O)Nc2cccc(C(F)(F)F)c2)s1` it was -11.2%; in that of `CCOc1ccc(CN2CCN(C(=O)c3cccc(F)c3)CC2)cc1`, 1.7%.
For `C=CCn1c(SCC(=O)N2CCN(CCO)CC2)nc2sc(C)c(C)c2c1=O`, the displacement was 2%.
Turning to `COc1ccc(C(=O)Nc2ccccc2C(=O)Nc2nc3ccccc3n2C)cc1`, the displacement was 11.9%.
In the case of `COc1ccc(CC(=O)Nc2cccc(-c3nc4ncccc4o3)c2)cc1OC`, the displacement was determined as 0.2%.
In the case of `N#C/C(=C\c1cccc(Cl)c1)c1nc2ccccc2[nH]1`, the displacement is -9.2%.
On to `CN1CCN(c2nc3ccccn3c(=O)c2/C=C2\SC(=S)N(C)C2=O)CC1`, for which the displacement was -8.5%.
To `O=c1oc2cc(O)ccc2c2c1CCCC2` belongs 15%; to `O=C(O)C12c3ccccc3C(C(=O)O)(c3ccccc31)c1ccccc12`, -11%; to `COc1ccc(N(CC(=O)O)S(=O)(=O)c2ccc(NC(C)=O)cc2)cc1`, -4.6%.
With `O=C(c1nn2c(C(F)(F)F)cc(-c3cccs3)nc2c1Cl)N1CCOCC1`, the displacement was -7.7%.
For the compound `CCOC(=O)c1c[nH]c2c(OCC)cccc2c1=O`, the displacement came to 5.8%.
With `Nc1cc(-c2ccccc2)nn1-c1ccccc1`, the displacement worked out at 4.8%.
Regarding `CCOC(=O)c1cnn2c(C(F)(F)F)cc(-c3ccco3)nc12`, the displacement came to 11.4%.
For `Nc1ccc2nc(SCC(=O)Nc3cccc(C(F)(F)F)c3)sc2c1`, the displacement was -3.3%.
Take `COc1cc(NC(=O)COc2cc(C)ccc2C(C)C)ccc1NC(=O)c1ccco1`: the displacement was found to be 3.1%.
For `O=C(NCc1cccnc1)c1cc2nc3c(c(C(F)(F)F)n2n1)CCc1ccccc1-3`, the displacement came out at 11.2%.
In the case of `CCC(=O)Nc1sc2c(c1C(=O)Nc1ccccc1Cl)CCC(C)C2` (stereo unspecified) it was -5.4%.
As to `COc1ccccc1-c1nnc(N)s1`, the displacement was -1%.
Consider `CC1=NN(c2ccc(S(N)(=O)=O)cc2)C(=O)/C1=C\c1ccc(-c2cc([N+](=O)[O-])ccc2C)o1`, for which the displacement is -6.5%.
In the case of `S=c1[nH]nc(-c2cccc(Br)c2)n1-c1ccccc1`, the displacement is -14.7%.
Regarding `COc1ccc(CCNc2cc(N3CCN(C(=O)c4cc(Cl)c(OC)c(Cl)c4)CC3)ccc2[N+](=O)[O-])cc1OC`, the displacement was found to be 12.7%.
To `CCOC(=O)C1(C(=O)OCC)C(c2ccccc2)CC(O)N1C(C)=O` (stereo unspecified) belongs 8.7%; to `O=C(c1ccncc1)N1CCN(S(=O)(=O)c2ccccc2)CC1`, -11%.
To `COc1cc(CNc2ccc3c(c2)CCC3)cc(OC)c1O` belongs 11%.
In the case of `CCC1(C)Cc2c(sc3nc(SCC(=O)c4ccccc4)nc(N)c23)CO1` (stereo unspecified), the displacement is -7.7%.
Turning to `CCOC(=O)c1ccc2nc(NC(=O)CSCC(=O)OCC(=O)c3ccc(Br)cc3)sc2c1`, the displacement was 23.2%.
With `COc1cc(NC(=O)c2ccc(F)cc2)cc([N+](=O)[O-])c1`, the displacement came to 10%.
Regarding `O=C(OCCOc1ccccc1)c1sc2ccccc2c1Cl`, the displacement is 12.1%.
In the case of `COc1ccc(/C=N/N2CCN(Cc3ccc(Cl)cc3)CC2)cc1OCc1ccccc1`, the displacement is -3.8%.
In the case of `Cc1cccc(N2CCN(C(=O)c3cc(-c4ccc(Cl)cc4)nc4ccccc34)CC2)c1C` it was -9.7%; in that of `COC(=O)c1cc(OC)cc([N+](=O)[O-])c1`, 6.3%.
`Cc1ccccc1NC(=O)CC1CCCCC1`: the displacement was -3.4%.
Regarding `CCOC(=O)C(=CNc1cc(OC)c(Cl)cc1OC)C(=O)OCC`, the displacement worked out at 2.9%.
For the compound `CCOC(=O)COc1ccccc1/C=C1/C(=O)NN(c2ccccc2)C1=O`, the displacement worked out at 20.2%.
Consider `CCOC(=O)c1c(CC(C)C)csc1N1C(=O)c2cccc([N+](=O)[O-])c2C1=O`, for which the displacement was -8.8%.
Take `CN=C(Nc1cccc(F)c1)SC1CC(=O)N(c2ccccc2F)C1=O` (stereo unspecified): the displacement is -1.3%.
As for `CCOc1ccc(N(CC(=O)Nc2cccc(Cl)c2)S(=O)(=O)c2ccc(SC)cc2)cc1`, the displacement was -1.1%.
With `COC(=O)C(C(=O)OC)C(C(C)C)C(C(=O)OC)C(=O)OC`, the displacement stood at 13.4%.
Consider `Cc1cccc2c1nc1s/c(=C\c3ccc(-c4ccccc4F)o3)c(=O)n12`, for which the displacement came to 15.4%.
For the compound `CC(C)(C)c1ccc(-c2cc(-c3ccccc3O)[nH]n2)cc1`, the displacement is 0.3%.
Turning to `CC(=O)c1cccc(NC(=O)CC2S/C(=N\N=C(/C)c3ccc(F)cc3)NC2=O)c1` (stereo unspecified), the displacement was -1.8%.
Consider `COc1ccc(OC)c(C2/C(=C(\O)c3ccc([N+](=O)[O-])cc3)C(=O)C(=O)N2CCCCCC(=O)O)c1` (stereo unspecified), for which the displacement was -4.5%.
As for `Cc1cc(C)cc(N2C(=O)NC(=O)/C(=C\c3ccc(N(C)C)cc3)C2=O)c1`, the displacement amounted to 127%.
Regarding `COC(=O)c1cnn2c1NC(c1ccccc1)CC2C(F)(F)F` (stereo unspecified), the displacement was 6.5%.
In the case of `NC(=O)c1cnn2c1NC(c1cccs1)CC2C(F)(F)F` (stereo unspecified) it was 3.9%.
As to `Cc1cccc(C)c1N(Cc1ccccc1)C(=O)c1c(F)cccc1F`, the displacement is -14.4%.
Regarding `Cn1c2c(c(=O)[nH]c1=O)C(c1ccc(OCc3ccccc3)cc1)C1=C(N2)c2ccccc2C1=O` (stereo unspecified), the displacement is 11.9%.
Regarding `Cc1ccc(CN2CCN(/N=C/c3cccc(F)c3)CC2)cc1`, the displacement was 7.6%.
In the case of `CC(C)c1cccc(C(C)C)c1NC(=O)CN1C(=O)c2ccccc2C1=O` it was 11%; in that of `Cc1c(C(=O)Nc2ccccc2-c2ccccc2)cccc1[N+](=O)[O-]`, 14.8%; in that of `O=C(O)CCCCCN1C(=O)C(=O)/C(=C(/O)c2ccc([N+](=O)[O-])cc2)C1c1ccc(O)cc1` (stereo unspecified), 9.5%.
To `COc1ccc(CN2CCN(S(=O)(=O)c3ccc(OC)cc3)CC2)cc1` belongs 0.9%.
Regarding `O=C(Nc1c(F)c(F)c(F)c(F)c1F)c1ccccc1F`, the displacement stood at 11.3%.
On to `COc1cc([N+](=O)[O-])cc2c1NC(c1ccc(Br)cc1)C1CC=CC21` (stereo unspecified), for which the displacement is -10.1%.
With `CC(C)C(=O)Nc1ccc(N(C)C)cc1`, the displacement is -3.1%.
With `Cc1cccc(OCC(=O)Nc2ccc(Br)cc2)c1C`, the displacement is 1.2%.
Take `O=c1/c(=C/c2ccc(-c3ccccc3[N+](=O)[O-])o2)sc2nc3cc(Br)cnc3n12`: the displacement stood at 10.5%.
To `O=C1NC(=S)N/C1=C/c1ccc(-c2cc(C(=O)O)ccc2Cl)o1` belongs 22.7%.
